# Measurements: publication PMC4336329 (PLoS ONE, 2015)
# Hit rate of the full screen: of about 310,000 compounds, about 14,000 (4.5%) showed an effect of 50% or more. Effects have a minus sign here. Some of the results follow.
# Biological target: human ether-à-go-go-related gene (hERG) potassium channel (human, UniProt Q12809)
# Assay: primary screen, population patch clamp on CHO cells stably expressing hERG
# 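Note: peak tail current of the secondary pulse compared with the same well before compound.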
# human ether-à-go-go-related gene (hERG) potassium channel, sequence (Q12809 whole entry, looked up): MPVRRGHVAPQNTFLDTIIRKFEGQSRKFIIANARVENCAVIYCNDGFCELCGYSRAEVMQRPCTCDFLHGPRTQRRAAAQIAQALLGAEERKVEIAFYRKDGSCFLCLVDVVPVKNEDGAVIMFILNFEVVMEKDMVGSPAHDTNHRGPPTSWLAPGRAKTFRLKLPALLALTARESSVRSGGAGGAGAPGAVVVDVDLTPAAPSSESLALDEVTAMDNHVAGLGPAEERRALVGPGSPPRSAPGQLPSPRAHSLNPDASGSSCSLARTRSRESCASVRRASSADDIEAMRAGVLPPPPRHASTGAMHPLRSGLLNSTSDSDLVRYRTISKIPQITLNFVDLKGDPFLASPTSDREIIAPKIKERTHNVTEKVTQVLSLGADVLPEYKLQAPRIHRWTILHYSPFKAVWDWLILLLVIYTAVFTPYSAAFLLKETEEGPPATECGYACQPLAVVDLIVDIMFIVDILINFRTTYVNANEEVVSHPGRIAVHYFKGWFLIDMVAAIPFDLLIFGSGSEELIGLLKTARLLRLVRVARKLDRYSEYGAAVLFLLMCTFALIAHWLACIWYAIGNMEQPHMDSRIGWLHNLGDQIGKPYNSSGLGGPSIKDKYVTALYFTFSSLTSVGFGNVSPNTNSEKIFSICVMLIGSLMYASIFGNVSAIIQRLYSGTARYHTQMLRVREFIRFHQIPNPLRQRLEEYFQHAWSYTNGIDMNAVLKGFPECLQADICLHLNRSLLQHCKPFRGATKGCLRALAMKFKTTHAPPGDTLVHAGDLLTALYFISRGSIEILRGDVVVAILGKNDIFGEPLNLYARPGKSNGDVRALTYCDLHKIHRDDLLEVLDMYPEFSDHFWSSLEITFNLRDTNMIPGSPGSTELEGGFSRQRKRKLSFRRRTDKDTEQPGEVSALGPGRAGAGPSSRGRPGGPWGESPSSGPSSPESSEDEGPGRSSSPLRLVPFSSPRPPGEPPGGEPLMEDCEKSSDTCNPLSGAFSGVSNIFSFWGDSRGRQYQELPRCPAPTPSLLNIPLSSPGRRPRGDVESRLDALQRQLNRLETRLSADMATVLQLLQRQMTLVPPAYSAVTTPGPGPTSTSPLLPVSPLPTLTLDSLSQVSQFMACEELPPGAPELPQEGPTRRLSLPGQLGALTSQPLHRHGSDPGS
row,Structure (SMILES),"hERG current change (%, negative = inhibition) at 10uM"
1,COc1ccc(C(=O)Cn2cc([N+](=O)[O-])nc2C)cc1,11.7%
2,Br.CC(=O)c1ccc(N2Cc3ccccc3C3(CCOCC3)C2=N)cc1,-57.5%
3,CCCCN(CC)C(=O)c1ccc(Cl)cc1,28.4%
4,Cc1cc(S(=O)(=O)N2CCC(N3CCCCC3)CC2)ccc1-n1cnnn1,-1.17%
5,COc1cc(CC(=O)Nc2cc(S(C)(=O)=O)ccc2Cl)cc(OC)c1OC,21.3%
6,S=c1[nH]nc(C2CCCCC2)n1/N=C/C=C/c1ccccc1,10.1%
7,CC1=C(C(=O)Nc2ccc(Br)cc2)C(c2ccco2)NC(=O)N1 (stereo not drawn),-23.3%
8,CCc1ccccc1NC(=O)c1onc(C)c1Cl,7.86%
9,COc1cc(C(=O)NCC(c2cccnc2)N2CCN(c3ccc(F)cc3)CC2)cc(OC)c1OC (stereo not drawn),-25.7%
10,CCOC(=O)N1CCN(C(=O)c2cn(CC)c3ccc(S(=O)(=O)N4CCCCC4)cc3c2=O)CC1,12.2%
11,O=C(COc1ccc(Cl)cc1)NNC(=O)C(=O)NC1CCCCC1,-21.2%
12,CC1CCCCN1CCCNC(=O)CN1C(=O)CSc2ccc(S(=O)(=O)N3CCOCC3)cc21 (stereo not drawn),19.5%
13,CCC1(CC)NC(=O)N(CC(=O)OC(C)C(=O)Nc2ccc(Cl)cn2)C1=O (stereo not drawn),-51.7%
14,CCc1cc(C(=O)N(CC(C)C)c2c(N)n(Cc3ccccc3)c(=O)[nH]c2=O)sc1C,-19.7%
15,COc1ccccc1NC(=O)CSc1ccc(-c2ccccn2)nn1,-8.04%
16,Cn1c(=O)c2c(nc(Cc3ccccc3)n2C)n(C)c1=O,15.7%
17,CCC(=O)c1ccc(OCC(O)Cn2nnc3ccccc32)cc1 (stereo not drawn),-20.1%
18,COc1ccccc1NC(=O)c1nnn(CC(=O)Nc2ccccc2)c1N,7.36%
19,Cc1cccc(NC(=O)CCNC(=O)c2ccccc2)c1,19.5%
20,CCCCNC(=S)NCC(c1ccccc1)c1c[nH]c2ccccc12 (stereo not drawn),14.7%
21,CCn1c(SCC(=O)NCc2ccc3c(c2)OCO3)nnc1-c1cccs1,-23.1%
22,CC(C)COc1ccc(CN=C(N)N=C(N)N)cc1Cl.Cl,-14.5%

row,Structure (SMILES),"hERG current change (%, negative = inhibition) at 10uM"
1,Nn1cc(-c2ccccc2)nc1SCC(=O)N1CCN(S(=O)(=O)c2ccccc2)CC1,-37.2%
2,O=C1[C@@H]2Cc3c([nH]c4ccccc34)C(c3ccccc3)N2C(=O)CN1CCO (stereo partly drawn),-5.39%
3,COc1cccc(COC(=O)C2CCN(S(=O)(=O)c3cccs3)CC2)c1OC,-14.5%
4,CCN(CC)S(=O)(=O)c1ccc(C(=O)Nc2nnc(COC)o2)cc1,1.07%
5,COc1ccc(-c2ccc(CCC(=O)O)n2NC(=O)c2ccc(C(C)(C)C)cc2)cc1,22.9%
6,O=S(=O)(NCCSc1ccccn1)c1ccc(Cl)cc1,-21.2%
7,CC1(CC(=O)N/N=C/c2cc3c(cc2Br)OCO3)OCCO1,15.5%
8,O=C(CCNC(=O)c1ccc(Cl)cc1)Nc1ccc(S(=O)(=O)N2CCCCC2)cc1,-15.8%
9,CCN(CC(=O)NCc1cccs1)C(=O)/C=C/c1cc(OC)ccc1OC,-2.74%
10,Cc1ccc(C)c(OCCC(=O)OCC(=O)NC(=O)NC2CCCC2)c1,-9.77%
11,CCCCOP(=O)(OCCCC)C(Nc1ccccc1)c1ccc2c(c1)OCO2 (stereo not drawn),-23.5%
12,COC(=O)CN(n1cnnc1)S(=O)(=O)c1ccccc1,12.4%
13,Cc1ccc(NC(=S)NNc2ncc(C(F)(F)F)cc2Cl)c(C)c1,5.17%
14,O=C(Nc1ccc(Cl)cc1)C1CCCN(c2cnccn2)C1 (stereo not drawn),-13.4%
15,Cc1ccnc(NC2c3ccccc3C(=O)N2Cc2ccccc2Cl)c1 (stereo not drawn),22.9%
16,CCOCCCNCc1ccc(OCc2ccccc2Cl)cc1,-46.9%
17,Cc1nc2ncnn2c(C)c1Cc1cccc(C(F)(F)F)c1,-4.21%
18,COC(=O)N(NC(=O)C(O)(CCC(C)C)CCC(C)C)c1ccccc1,21.3%
19,O=C(OCn1nnc2ccccc2c1=O)c1cccc(S(=O)(=O)N2CCOCC2)c1,-17.1%
20,CCCCCC(=O)NNC(=O)c1c(O)c2ccccc2n(CC)c1=O,-13.5%
21,Cl.Clc1ccc(Nc2nc(N3CCOCC3)nc(N3CCOCC3)n2)cc1Cl,11.7%
22,CCC(C)(C)NC(=O)c1ccc(S(=O)(=O)N2CCCCCC2)cc1,-0.628%

row,Structure (SMILES),"hERG current change (%, negative = inhibition) at 10uM"
1,O=C(/C=C/Nc1ccc(Oc2ccccc2Cl)cc1)c1ccco1,-1.79%
2,CC1(C(=O)N(c2ccccc2)C(C(=O)NC2CCCC2)c2ccccn2)CC(=O)N=C2C=CC=CN21 (stereo not drawn),11.5%
3,COc1ccc(C2C(C#N)=C(N)Oc3n[nH]c(C)c32)cc1CN1CCN(c2ccc(F)cc2)CC1 (stereo not drawn),-65.6%
4,CC(C)(Oc1ccc(Cl)cc1)C(=O)OCc1nc2ccsc2c(=O)[nH]1,-11.1%
5,O=C(CN1CCN(c2ccc(O)cc2)CC1)Nc1ccc2c(c1)OCCCO2,-5.96%
6,O=C(CSc1oc(-c2ccccc2)nc1S(=O)(=O)c1ccc(F)cc1)NCC1CCCO1 (stereo not drawn),-5.48%
7,CCOC(=O)c1ccc(-c2csc(NC(=O)CN3CCC(C)CC3)n2)cc1,-12.3%
8,O=[N+]([O-])c1cc(C(F)(F)F)ccc1N1CCCNCC1,-37.5%
9,O=c1cc(CNCCCO)c2ccccc2[nH]1,-0.517%
10,Cc1cccnc1NC(=S)NC(=O)c1cncc(Br)c1,14.7%
11,CCOC(=O)C1CCCN(C(=O)C2CCN(S(=O)(=O)c3cnc[nH]3)CC2)C1 (stereo not drawn),17%
12,Cc1cc2oc(C(=O)N(Cc3ccco3)C3CCS(=O)(=O)C3)cc(=O)c2cc1Cl (stereo not drawn),-42.3%
13,O=C(Nc1ccc(F)cc1)c1cc(-c2ccccc2)no1,14%
14,Cc1cc(S(=O)(=O)NCc2ccccc2)ccc1OCC(=O)Nc1cccc([N+](=O)[O-])c1,10.3%
15,COc1ccc(C(=O)Nc2ccccc2-c2nnn(CC(=O)N3CCOCC3)n2)cc1,4.59%
16,Cc1ccc(NC(=O)COC(=O)c2ccc(-n3cnnn3)cc2)c(Br)c1,-1.08%
17,O=S(=O)(c1ccc(Cl)cc1)N1CCN(CCc2ccccc2)CC1,-3.7%
18,c1ccc2c(c1)CNc1ccccc1O2,2.94%
19,COc1ccccc1N(C)S(=O)(=O)c1ccc(C(=O)OCC(=O)N2CCCCCC2)cc1,12%
20,N#CC1=C(N)OC2=C(C(=O)CCC2)C1c1ccc(OC(=O)N2CCOCC2)cc1 (stereo not drawn),1.64%
21,Cc1ccc(CN(C)C(=O)c2cc(Br)c(Br)s2)o1,7.75%
22,CC(C)N(CCO)C(=O)CCc1nnc(Cc2cccc(C(F)(F)F)c2)o1,17.9%

row,Structure (SMILES),"hERG current change (%, negative = inhibition) at 10uM"
1,CCOC(=O)CSc1nnc(NC(=O)c2cccc(S(=O)(=O)N3CCCCC3)c2)s1,8.12%
2,COc1ccc(/C=C/c2nc3ccccc3n2C)cc1,-47%
3,Cc1ccc(C2CC(c3cccs3)=NN2C(=O)c2ccco2)o1 (stereo not drawn),-12.8%
4,COc1ccc(S(=O)(=O)N2CCc3ccccc32)cc1C(=O)Nc1cccnc1,4.44%
5,COc1cc(/C=N/N=C(\N)c2nonc2N)cc(OC)c1O,0.137%
6,CCN(CC)c1ccc(S(=O)(=O)N2CCOCC2)cc1NC(=O)COC(=O)COc1ccccc1C,12.7%
7,CCc1nc(Nc2ccccc2)c2nnn(Cc3ccccc3)c2n1,8.23%
8,COc1ccc(NC(=O)CSc2nnc(Cc3cccn3C)n2-c2ccc(F)cc2)cc1,-21.7%
9,CC(C)CC(NC(=O)OC(C)(C)C)C(=O)NCc1ccccc1 (stereo not drawn),11%
10,O=C(CN1C(=O)S/C(=C\c2ccccc2F)C1=O)NC1CCS(=O)(=O)C1 (stereo not drawn),13.3%
11,Cc1cc(C(=O)CN2C(=O)NC3(CCCC3)C2=O)c(C)n1-c1ccc2c(c1)OCO2,-28.5%
12,O=C(NCCNC(=O)c1ccco1)c1ccco1,21.4%
13,Cc1ccc(C(=O)CSc2ccc(-c3ccccc3)nn2)cc1,-3.65%
14,Cc1ccc(S(=O)(=O)c2nc(NCCN(C)C)sc2Cl)cc1,-69.5%
15,Cc1ccc(C)c(-n2c(CNC(=O)c3ccco3)nnc2SCC(=O)Nc2nccs2)c1,7.28%
16,O=S1(=O)CCC(NC(=S)Nc2ccccc2)C1 (stereo not drawn),3.9%
17,Cc1ccc2c(c1)C(c1ccccc1)NCC(=O)N2 (stereo not drawn),2.58%
18,COc1cccc(OC)c1NC(=O)Cn1nc(C)c2ccccc2c1=O,11.4%
19,Nc1ncnc(Oc2ccccc2F)c1[N+](=O)[O-],8.42%
20,Cc1cc(C)nc(N2CCC(C(=O)NNC(=O)c3ccc(Cl)cc3)CC2)n1,4.45%
21,Cc1cccc(Nc2nnc(SCC(=O)Nc3cccc(S(=O)(=O)N4CCCCC4)c3)s2)c1,3.37%
